# Results reported in PubChem BioAssay AID485294 (National Center for Advancing Translational Sciences (NCATS), 2010).
# Hit rate of the full screen: of about 370,000 compounds, about 150 (0.041%) were called active. Inconclusive results, whose numbers are uncertain, are shown with a selection of clear calls. Calls follow the shape of the dose curve; as a rule, active = well fitted inhibition curve with a large enough effect; inconclusive = small, poorly fitted or top-dose-only effect; inactive = flat fitted curve, though single readings scatter. Potencies of inconclusive entries are left out as doubtful fits.
# Target: Beta-lactamase (Escherichia coli (strain K12)) (UniProt P00811)
# UniProt P00811, sequence (P00811 whole entry, looked up): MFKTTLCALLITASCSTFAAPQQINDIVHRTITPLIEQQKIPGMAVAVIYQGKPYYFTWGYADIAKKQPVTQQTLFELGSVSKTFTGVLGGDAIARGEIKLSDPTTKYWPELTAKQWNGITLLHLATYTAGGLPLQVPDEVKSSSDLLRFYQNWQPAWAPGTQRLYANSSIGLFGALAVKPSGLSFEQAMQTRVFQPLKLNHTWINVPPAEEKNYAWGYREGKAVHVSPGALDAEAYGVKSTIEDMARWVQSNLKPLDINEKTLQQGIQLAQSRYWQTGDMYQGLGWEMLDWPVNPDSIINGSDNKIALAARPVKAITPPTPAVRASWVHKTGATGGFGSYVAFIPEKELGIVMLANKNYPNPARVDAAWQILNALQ
# Assay: qHTS Inhibitors of AmpC Beta-Lactamase (assay with detergent); also: nearly all actives have a fitted effect of over 25% in size
# Conditions: AmpC hydrolysis of nitrocefin, absorbance 480 nm, 0.01% Triton; series mostly up to 114 µM
# Method in brief: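 AmpC (5.3 nM in the dispensed reagent) in 20 mM phosphate pH 7.0 with 0.01% (detergent screen) or 0.0001% Triton X-100 was preincubated with compounds for 15 min at room temperature. Nitrocefin was then added from an 800 uM solution, and hydrolysis was followed at 480 nm.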
# Potency is read from the fitted curve at half-maximal effect; tags tell the direction and shape of the fitted curve.
row,Compound,Potency
1,Cc1cc(OCC(O)CN2CCN(C)CC2)ccc1C(C)C (centres undefined),"inconclusive [inhibitor, full curve, poor fit]"
2,Cc1cccc(Nc2nc(-c3ccccn3)cs2)n1,"inconclusive [inhibitor, full curve, poor fit]"
3,COc1ccc(N2CCN(CCCNC(=O)c3nnc(Cc4ccc(F)cc4)o3)CC2)cc1,inactive
4,CC(=O)c1cc(-c2ccccc2)n(CCC(=O)NC2CCC(C)CC2)c1C (centres undefined),"inconclusive [inhibitor, single point]"
5,O=C(c1ccc([N+](=O)[O-])cc1)N1CCN(C2=NS(=O)(=O)c3ccccc32)CC1,inactive
6,CC(C)(C)NC(=O)C(=O)NN=C1CCCCCCC1,"inconclusive [inhibitor, full curve, poor fit]"
7,CCOC(=O)C1CCN(S(=O)(=O)c2cccc(-c3cn4cccc(C)c4n3)c2)CC1,"inconclusive [inhibitor, full curve, poor fit]"
8,COCCNC(=O)CN1CCC(n2c(C)nc3cc(C(F)(F)F)ccc32)CC1,"inconclusive [inhibitor, single point]"
9,CCc1ccc2ncc3c(-c4ccc(F)cc4)nn(CC(=O)NC4CCCCC4)c3c2c1,inactive
10,COc1cccc(C2c3c(-c4cc(Cl)c(C)cc4O)n[nH]c3C(=O)N2Cc2cccnc2)c1 (centres undefined),"inconclusive [inhibitor, full curve, poor fit]"
11,COc1ccc(NS(=O)(=O)c2cccc(C(=O)NCc3ccco3)c2)cc1,"inconclusive [inhibitor, full curve]"
12,COC(=O)c1cc(OC)c(OC)cc1NC(=O)c1csc(C)c1,inactive
13,Cc1cccc(C)c1NC(=O)C1CCCN1S(=O)(=O)c1ccccc1 (centres undefined),"inconclusive [inhibitor, full curve]"
14,CN1/C(=C/c2cccc[n+]2CCO)Sc2ccccc21,"inconclusive [inhibitor, full curve, poor fit]"
15,Cc1ccsc1/C=N/NC(=O)c1ccccn1,inactive
16,CC1CC(Nc2ccccc2)c2ccccc2N1C(=O)c1cccnc1 (centres undefined),"inconclusive [inhibitor, single point]"
17,Cc1ccc(NC(=O)c2ccc(CSc3nnnn3C)cc2)cc1,inactive
18,CCCC1(C)Nc2ccccc2-c2nc3ccccc3n21 (centres undefined),inactive
19,COc1ccc(-n2c(C)nc3c(cnn3-c3ccccc3)c2=O)cc1,"inconclusive [inhibitor, full curve, poor fit]"
20,Cc1ccc(OCC(=O)Nc2ccc(S(=O)(=O)N3CCOCC3)cc2)c([N+](=O)[O-])n1,"inconclusive [inhibitor, single point]"
21,N#CC(C#N)=C1C=C2C=C(N3CCCCCC3)CCC2CC1 (centres undefined),"inconclusive [inhibitor, full curve, poor fit]"
22,CC(=O)N1c2ccc(S(=O)(=O)N3CCC(C(=O)Nc4cccc(Cl)c4C)CC3)cc2CC1C (centres undefined),inactive

row,Compound,Potency
1,CCOC(=O)Nc1ccc2c(c1)nc(CN1CCOCC1)n2C,"inconclusive [inhibitor, full curve, poor fit]"
2,CC(C)CN(C(=O)COC(=O)c1ccc2c(c1)NC(=O)CS2)C1CCS(=O)(=O)C1 (centres undefined),"inconclusive [inhibitor, partial curve, poor fit]"
3,COC(=O)COc1ccc2cc(-c3ccc(OC)cc3)c(=O)oc2c1,"inconclusive [inhibitor, partial curve, poor fit]"
4,CCC(C)c1ccc(NC(=S)N2CCN(c3ccccn3)CC2)cc1 (centres undefined),"inconclusive [inhibitor, full curve]"
5,Cc1cc(NC(=O)CN2CCCCCCC2)no1,"inconclusive [inhibitor, partial curve, poor fit]"
6,O=C(NCc1ccccc1Cl)C(=O)NCC1CCCN1S(=O)(=O)c1cccs1 (centres undefined),"inconclusive [inhibitor, full curve]"
7,Cc1cc(C)nc(N2CCC(C(=O)NC3CCCc4ccccc43)CC2)n1 (centres undefined),"inconclusive [inhibitor, full curve, poor fit]"
8,CN1CCN(C(=O)N2CCNC2=O)CC1,"inconclusive [inhibitor, full curve]"
9,CC(C)(C)NC(=S)N/N=C/c1cc(Br)c(O)c(Br)c1,inactive
10,COc1ccc(S(=O)(=O)N(CC(=O)N2CCc3ccccc3C2)c2ccc(C)cc2)cc1,inactive
11,Clc1ccc(-c2nnc(N3CCCC3)nn2)cc1,"inconclusive [inhibitor, partial curve, poor fit]"
12,CCC(C)NS(=O)(=O)c1cc2c3c(c1)CCN3C(=O)CC2 (centres undefined),inactive
13,CC(NC(=O)COC(=O)c1cn(-c2ccccc2)nc1-c1cccs1)c1ccccc1 (centres undefined),"inconclusive [inhibitor, full curve]"
14,CC(C)C(c1nnnn1Cc1ccccc1)N(Cc1ccco1)Cc1cccs1 (centres undefined),inactive
15,O=C(Nc1nnc(CC(=O)N2CCOCC2)s1)C1COc2ccccc2O1 (centres undefined),"inconclusive [inhibitor, full curve, poor fit]"
16,O=C(Nc1cccc(Cl)c1)N1CCN(Cc2ccccc2)CC1,"inconclusive [inhibitor, full curve, poor fit]"
17,O=C(CCCC(=O)NC1CCCCC1)Nc1ccc([N+](=O)[O-])cc1,"inconclusive [inhibitor, full curve, poor fit]"
18,COc1ccc2nc(SCc3cccc(C)c3)nc(C)c2c1,"inconclusive [inhibitor, partial curve, poor fit]"
19,O=C(/C=C/N1CCOCC1)c1cc2ccccc2o1,inactive
20,CC[n+]1c(/C=C/N(C)c2ccccc2)oc2ccc(F)cc21,"inconclusive [inhibitor, partial curve, poor fit]"
21,CCC(C(=O)NCc1ccco1)N(C(=O)CNS(=O)(=O)c1ccccc1)c1ccc(F)cc1 (centres undefined),inactive
22,CC(C(=O)OCC(=O)c1ccc(F)cc1)N1C(=O)C2C3C=CC(C3)C2C1=O (centres undefined),"inconclusive [inhibitor, single point]"
